No constants are given. Whether binding was seen depends on the method and setting. In cells and extracts the contact can be indirect. Some entries that bind do so weakly or less than the wild type.
Columns and labels:
CXCR4-VN (human) = CXCR4-VN (human) (UniProt P61073); assay: split reporter; BiFC: HEK293A cells transfected with GPCR-VN and GPCR-VC at 1:1, fixed with 4% paraformaldehyde, reconstituted Venus imaged by confocal microscopy
CXCR4-VC (human) = CXCR4-VC (human) (UniProt P61073); assay: as above
Myc-CXCR4 (human) = Myc-CXCR4 (human) (UniProt P61073); assay: proximity ligation; PLA (NaveniFlex MR) on fixed transfected HEK293A cells with mouse anti-CXCR4 and rabbit anti-HA antibodies
Flag-CXCR4-VN (human) = Flag-CXCR4-VN (human) (UniProt P61073); assay: split reporter; BiFC: HEK293A cells transfected with GPCR-VN and GPCR-VC at 1:1, fixed with 4% paraformaldehyde, reconstituted Venus imaged by confocal microscopy
Flag-CXCR4-VC (human) = Flag-CXCR4-VC (human) (UniProt P61073); assay: as above
[1] = molecular target: CXCR4 (adenoviral BiFC screen, VN or VC fusion) (human) (UniProt P61073); assay: split reporter; high-throughput adenovirus-based BiFC screen in U2-OS cells cotransduced with GPCRx-VN and GPCRy-VC; preliminary study, data not shown
[2] = molecular target: CXCR4 (endogenous, MDA-MB-231 cells) (human (endogenous in MDA-MB-231)) (UniProt P61073); assay: proximity ligation; PLA on fixed MDA-MB-231 cells (sgScramble control and LPAR1 knockout) with M1/M2 probe-conjugated anti-CXCR4 and mouse anti-LPA1 antibodies; endogenous receptors

By UniProt entry, the sequences of proteins in these tests, tags left out.
UniProt P61073: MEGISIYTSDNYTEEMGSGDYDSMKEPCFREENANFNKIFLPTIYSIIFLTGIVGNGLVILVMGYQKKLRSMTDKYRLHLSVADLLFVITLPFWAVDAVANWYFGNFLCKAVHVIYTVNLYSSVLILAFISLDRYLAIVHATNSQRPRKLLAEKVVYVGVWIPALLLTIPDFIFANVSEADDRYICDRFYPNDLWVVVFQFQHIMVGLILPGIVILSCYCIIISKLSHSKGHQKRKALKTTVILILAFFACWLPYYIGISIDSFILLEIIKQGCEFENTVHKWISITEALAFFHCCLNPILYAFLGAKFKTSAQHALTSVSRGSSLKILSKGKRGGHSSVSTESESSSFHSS
UniProt Q92633: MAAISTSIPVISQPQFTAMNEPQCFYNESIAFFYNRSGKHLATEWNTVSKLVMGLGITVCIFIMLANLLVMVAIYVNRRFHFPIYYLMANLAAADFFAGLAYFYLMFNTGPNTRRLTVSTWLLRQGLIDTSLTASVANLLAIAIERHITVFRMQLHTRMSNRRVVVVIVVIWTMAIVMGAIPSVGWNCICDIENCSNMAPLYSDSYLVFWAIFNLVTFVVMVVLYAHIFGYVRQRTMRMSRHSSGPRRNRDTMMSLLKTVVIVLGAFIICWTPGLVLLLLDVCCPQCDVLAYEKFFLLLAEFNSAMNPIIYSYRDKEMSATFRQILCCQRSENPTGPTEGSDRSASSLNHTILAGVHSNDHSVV
UniProt P35372: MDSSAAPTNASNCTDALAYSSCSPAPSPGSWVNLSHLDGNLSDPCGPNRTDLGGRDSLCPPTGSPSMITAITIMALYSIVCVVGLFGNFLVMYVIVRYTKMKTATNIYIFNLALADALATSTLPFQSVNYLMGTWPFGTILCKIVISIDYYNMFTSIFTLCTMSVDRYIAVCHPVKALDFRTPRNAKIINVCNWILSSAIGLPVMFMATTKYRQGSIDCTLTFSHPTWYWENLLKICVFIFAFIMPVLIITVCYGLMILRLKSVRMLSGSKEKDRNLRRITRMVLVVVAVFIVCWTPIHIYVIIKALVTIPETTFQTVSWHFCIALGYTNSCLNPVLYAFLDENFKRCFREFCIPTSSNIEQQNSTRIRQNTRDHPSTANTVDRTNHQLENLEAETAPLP

Flag-LPA1-VC (from UniProt Q92633 1-364) (receptor)
binding (CXCR4-VN (human)): binds

Flag-LPA1-VN (from UniProt Q92633 1-364) (receptor)
binding (CXCR4-VC (human)): binds

HA-LPA1 (from UniProt Q92633 1-364) (receptor)
binding (Myc-CXCR4 (human)): binds

HA-μOR (from UniProt P35372 1-400) (receptor)
binding (Myc-CXCR4 (human)): no binding

HA-μOR-VC (from UniProt P35372 1-400) (receptor)
binding (Flag-CXCR4-VN (human)): no binding

HA-μOR-VN (from UniProt P35372 1-400) (receptor)
binding (Flag-CXCR4-VC (human)): no binding

LPA1 (adenoviral BiFC screen, VN or VC fusion) (from UniProt Q92633 1-364) (receptor)
binding [1]: binds

LPA1 (endogenous, MDA-MB-231 cells) (from UniProt Q92633 1-364) (receptor)
binding [2]: binds

Source: publication PMC10518940
